# Measurements: patent publication US20240207302A1, “ANTIVIRAL COMPOUNDS, METHODS FOR THE MANUFACTURING OF COMPOUNDS, ANTIVIRAL PHARMACEUTICAL COMPOSITION, USE OF THE COMPOUNDS AND METHOD FOR THE ORAL TREATMENT OF CORONAVIRUS INFECTION AND RELATED DISEASES THEREOF” (priority 2021, published 2024)
# Molecular target: SARS-COV-2 RNA polymerase (nsp12, nsp7 and nsp8) (Severe acute respiratory syndrome coronavirus 2, UniProt P0DTD1)
# Assay: SARS-COV-2 RNA polymerase cell-free assay (pyrophosphate luminescence)
# Format: biochemical
smiles,measurement,value
"O=P(O)(O)OP(=O)(O)OP(=O)(O)OC[C@H]1O[C@@H](n2cnc3c(NCc4ccco4)ncnc32)C(O)C1O (stereo partly shown) [MB-717, kinetin-ribose 5'-triphosphate]",IC50 relative to GS-443902,3 fold
